Some of the results follow.
test system: PfAP2-HC AP2 domain (GST-tagged); assay: gcPBM binding intensity (ln(normalized median fluorescence intensity)); higher = stronger DNA binding
Outline: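 Binding intensity is defined as the maximum Masliner-normalised natural-log median intensity across replicate spots for either probe orientation. It was measured on an Agilent 4 × 180k array of primer-extended double-stranded 36-bp intergenic genomic probes and negative controls, to which GST-tagged P. falciparum DNA-binding domains made in E. coli were applied for 1 h in 1× PBS with 1% milk, 0.2 mg/ml BSA, 0.5% salmon testes DNA and 0.03% Triton X-100. Detection was by Alexa488 anti-GST antibody and scanning at 488 nm.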

Sequence	gcPBM binding intensity (ln)
TATATATACTTAGAAACACACAAAAATATTTTATAA [CACACA_site2578]	9.67
TAATTAGTTTTTACTTTTTTTTTTTTTTTTCTATAT [CACACA_negctrl_site1024]	9.44
ATAAAAAGCTAAAAAGTGCAAAAAGTAAATATTTAA	10.1
TTTTATAAAGAACACAGACACACAAAGAAAGAACCA [CACACA_site4174]	10.2
TAAAAGGAGACATATACACACATATATATATATATA [CACACA_site5539]	9.9
ATTCCTCATTAATATTCTTATTTTTTAATTCACATT [XGTACX_negctrl_site329]	9.96
TTTATTTAAAATAAGTGTACTAGAAAAATTAAGCAG [XGTACX_site4982]	9.52
TGTGATTATGATAAAAGTACAGAAATAAATATACTA [XGTACX_site38]	9.63
ATGTATGTTTGTTATGCACACAAATGCATCTTATTT [CACACA_site8861]	10.2
ATAATGAACAATATTATATATAAAATATAATTTATA [GTGCAC_negctrl_site564]	9.56
ATTATGTATACATAAACACACATATATATAAAAAAA [CACACA_site262]	9.88
GAGAAATGGGGACACACACACATATTATATATATAT [CACACA_site4943]	10.4
TATATATATCTGTACACACACACATATAAATAAATA [CACACA_site4405]	10.2
AAGCACAAAAAATACACACACAAAAAATAAAAAAAG [CACACA_site1840]	10.5
TATATGCATAATAACTGTACACAAATTGGGGTTGAT [XGTACX_site459]	9.92
ATATAAATATATGTATGTACGCATGTATGTATCTAT [XGTACX_site3290]	9.85
TTTTAATTTATTTATGCACACATATATAATTACACA [CACACA_site8126]	9.79
AAAAATAAACAATATATAGTTATATATATATATATA [TGCATGCA_negctrl_site82]	9.71
ATTATATATATGTGCACACAAAAGATATATATATAT [CACACA_site5205]	10.1

Sequence	gcPBM binding intensity (ln)
AAATAATTTACTTAATGTACATATATATATATATAT [XGTACX_site8594]	9.78
ATATTTATTTGTTAGTGTACATACATATATATATAT [XGTACX_site1347]	9.89
TTTTCTATGCTAAACACACTCATTGTTACAAGTTTT [CACACA_site5531]	9.76
TATATATATTTTATATGTACGTATGGAACAATATGA [XGTACX_site8167]	9.54
TTATTTATTTTTTATACACACAATTATCATTTTAAG [CACACA_site22]	9.74
TGTTGTAAATTAAAGACATGCACGTGAGAAAATATA [TGCATGCA_site285]	10
AATTATATACATAAGTGTACATAATATATAAACATA [XGTACX_site793]	9.77
TTTTCAATTAATAATACACACATGTATTTATTATTA [CACACA_site5774]	9.77
TTAATTAGAAATCATACACACATATAAATAAATATA [CACACA_site6225]	9.76
TATTTGTTTGTTCGGGTGCTTACATATATTCTTATA [GTGCAC_site9972]	9.89
TGTGCCTATAAATTAACACACAGAAATATATAGAGA [CACACA_site818]	9.73
TTATTCTGACAGAATTGTACTAATGTCTTTAAAAAA [XGTACX_site1256]	9.06
TATACTAAGAAGTATTTACACACCAACAAGGCGAAA [CACACA_site8963]	9.73
TAAGTTTATTGAAATTGTACAAACATAAATGTAAAA [XGTACX_site162]	9.65
TTATATTTTTTTTTTTCACACACATTTATATTGTAT [CACACA_site9025]	10.2
AAATTAAGTATATATTGTACACATAATATGATTGTA [XGTACX_site3083]	9.77
TTATTTTCATATAGGTGTACATAAAAATATTCTTAT [XGTACX_site8861]	9.59
TATCATAAAAAATATACACACAAAGGATATATATAT [CACACA_site1571]	9.79
ATGTTCATTATATGCACACATATATATAAATGTAAT [CACACA_site2908]	9.78

Sequence	gcPBM binding intensity (ln)
CATACATACGGACACACACACATATATATATATATA [CACACA_site5598]	10.4
AAAAAAGAAAAAAGGACACACATAAATATACTCACG [CACACA_site2904]	10.1
ATAATGTTTCTTTCAACACACAAAAAATGAACACAT [CACACA_site1552]	9.79
AAAAAAAAAAAATAGACCTCCTAAGCAAAAGAAAAA [GTGCAC_negctrl_site634]	9.81
TATATAAGCGCATGCACACGCAAAGGTATATAAATA [CACACA_site622]	10.1
AATATAAATAAAAACACACACAATGGTACAGATATA [CACACA_site5930]	10.3
AATTTAAATTAGAATTGTACTAGAAAAGGAATATAT [XGTACX_site6162]	9.72
AATTATATAATCTTATAACATAATATAATAACATTT [CACACA_negctrl_site187]	9.45
ATAATTTTCCATATTTGTACATATTTTTTTCCCTTG [XGTACX_site8146]	9.78
TAATGACTGAAAAATTGTACATATGTATATATGTAT [XGTACX_site2415]	9.7
ATTCTATTATAATATTCACACACTAACGTAAATCAT [CACACA_site2750]	9.85
TATACATACATACATACACACACACCGATATATATA [CACACA_site7896]	10.2
TATTTATTTGTTTAAGGTACAGAACAAATTTTTATT [XGTACX_site7414]	9.5
AAATGTTCTTAAAAATGAATAATATATATATATATA [CACACA_negctrl_site796]	9.41
ATATTTATTATTATATGTACGTAACATCTTTATAAA [XGTACX_site7016]	9.8
CATAAATACATACATACACACATATATATATATATA [CACACA_site2106]	9.85
AAATGTTGAAAAATATGTACATATTATATATATTAT [XGTACX_site1165]	9.74
TAAGAAAGACAAAAAAAATGAAAAGAAAAAAAATGA [CACACA_negctrl_site1469]	9.49
